Whole data set: some 33,000 sequences, median “E-score (-0.5 to 0.5)” near -0.035, cut for the highest 2% near 0.34. The list shows a part of the results.
What follows are sequences tested against T1, Mot3 (UniProt P54785) (assay: PBM E-score (8-mer binding enrichment) (E-score (-0.5 to 0.5)); higher = stronger / more preferred TF binding; most listed sequences are background and not binding sites). Details: protein concentration: 200 nM; construct: GST-full length.
T1 sequence: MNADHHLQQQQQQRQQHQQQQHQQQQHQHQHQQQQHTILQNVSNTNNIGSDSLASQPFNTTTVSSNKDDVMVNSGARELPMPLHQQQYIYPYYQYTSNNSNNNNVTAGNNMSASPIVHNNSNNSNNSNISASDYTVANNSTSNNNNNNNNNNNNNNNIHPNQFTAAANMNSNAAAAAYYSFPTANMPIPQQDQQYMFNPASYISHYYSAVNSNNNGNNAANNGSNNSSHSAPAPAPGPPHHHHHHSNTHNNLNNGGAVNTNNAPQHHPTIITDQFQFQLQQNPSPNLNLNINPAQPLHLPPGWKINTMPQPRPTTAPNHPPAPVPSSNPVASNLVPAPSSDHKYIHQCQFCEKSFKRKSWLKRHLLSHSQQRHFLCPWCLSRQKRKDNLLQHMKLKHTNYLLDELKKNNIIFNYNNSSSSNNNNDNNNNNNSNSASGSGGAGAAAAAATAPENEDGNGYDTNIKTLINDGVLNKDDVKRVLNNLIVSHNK
Experimental: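 Universal 'all 10-mer' protein binding microarrays (Agilent AMADID 015681) probed with GST-tagged S. cerevisiae TFs (full-length or DBD) made by in vitro transcription/translation (PURExpress), about 100-200 nM. Bound TF was detected with fluorescent anti-GST. Each ungapped 8-mer (which stands for itself and its reverse complement) is scored by the PBM enrichment score (E-score), a modified Wilcoxon-Mann-Whitney statistic from -0.5 to +0.5, computed with the Universal PBM Analysis Suite. Scale: above 0.35 generally sequence-specific binding.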

Sequence | PBM E-score
AAGATGAG | 0.0134
AAGAGCAC | -0.0564
CCACGCGA | -0.138
GAGCCATA | -0.139
AAACCATA | -0.0448
TCCATCGA | -0.0692
TGCGCGAA | 0.0212
TCTACTAA | 0.0381
CAATACCA | 0.0932
GGTAGAGA | -0.198
AAATCGCG | 0.00312
ATTTACCG | 0.0616
GTCCGGTA | -0.107
CGTATTTC | 0.215
GGCTCTTA | -0.00724
CATATGCG | 0.0335
AACCTCAA | -0.0401
CGAGGACG | -0.24
GTACCAAA | 0.0359
GGGTTGTA | 0.106
ATGGATCC | -0.196
GATTCGAC | 0.0203
ATGGGGTA | -0.0156
TCGGAAGA | -0.261
GGGCTTAA | -0.167

Sequence | PBM E-score
TAGTAGAA | 0.177
ATTGTAGA | 0.14
GCGGCGAA | -0.225
AAGCCTTA | -0.147
AAAGACTG | -0.078
GTCGTGCA | 0.0491
AGGGTAGG | 0.0464
AGTGGTTA | 0.0302
CCATACGC | -0.106
ATACAGTG | -0.0188
ACTTGGTA | 0.16
CTGGGGAC | -0.125
GGGGTACC | -0.158
AGTTATTC | 0.0282
ACTTTACT | 0.164
ACGGAGCA | 0.111
ACGATCAA | 0.0643
GAGATCGA | -0.0959
GCTGACCC | -0.214
CAACTGGC | -0.268
CCTCCACC | -0.207
ACTCATAC | -0.0425
CTTAGACA | 0.111
AATCGCAT | -0.0399
TATTTGAA | -0.027

Sequence | PBM E-score
CCAACACA | 0.131
ATTGAAGC | -0.0722
AAGGTCTA | -0.177
CCTTAGCG | 0.0459
GCCCAGAA | -0.137
CTAGTAGC | -0.108
CCAGCGGC | -0.0396
AAGTAACA | 0.225
AAAAAGGT | 0.285
GCCTTGAC | 0.0121
ACTACGAG | -0.0186
CCGCTGAA | -0.0325
CCTGCTCA | 0.255
CGTGTGTA | 0.349
AATCCGGA | -0.187
AATGCGTG | 0.166
CGCCTCAA | -0.051
CACTTTTA | 0.117
AGTGAGTA | 0.147
ACGCCGCC | -0.0194
AACGCGAA | 0.268
GTCGAGTA | -0.0378
GTTAGACA | 0.119
CTCATCTC | -0.141
GCGCGCAC | 0.0018

Sequence | PBM E-score
CGGTGACG | -0.116
TACTAATA | 0.0453
GGCATGAC | -0.142
ATAACTAT | 0.0609
ACTGCGGG | -0.178
ATCAGACG | -0.154
CCCAATAA | -0.0424
GCGTTGAC | 0.0224
ACGAGGGG | -0.153
ATCCTCGG | -0.157
AGTCGTAC | -0.14
TGGAGCAA | -0.138
AGAATAGC | 0.013
AGGGCCCT | -0.368
ATCTGCTC | -0.121
AAACACAT | 0.262
TACTGCTA | -0.254
AAATGACT | 0.0159
GCAGGTTA | -0.0922
CACCCGTC | -0.202
CAAGTGGG | -0.116
CGTGTGCA | 0.131
AAACGCGC | 0.0362
AACAACAA | 0.236
AAGTGTAA | 0.0907

Sequence | PBM E-score
ACTCACTG | -0.00926
CAACGGCC | -0.222
CACGAGGG | -0.145
AGGACTAA | -0.186
AGATCCAC | -0.166
AATGTGAC | 0.0328
GAGCGGAA | -0.238
AAAGTCAT | -0.0144
AGCCATTG | -0.153
AGCAAGGA | -0.0799
ACAGGTAG | -0.0129
AGTGCCTC | 0.405
AACAGCCC | 0.0511
ATCGTACG | -0.161
AAACGCAC | 0.0986
GAGAACTC | -0.224
CGCGATAG | -0.0111
AAGATCAA | -0.0207
GACACTAA | -0.106
GATCTCAC | -0.27
ATCTATGC | 0.133
TCTCGTCA | 0.0328
CCGACTAA | -0.0823
CTGCATGC | 0.221
AGGGTCTC | -0.11

Sequence | PBM E-score
CTCCGCGC | -0.38
GTTGCAAA | 0.111
AATTAATC | 0.00158
AATAGCCA | -0.0713
GTTGGTAA | 0.267
ACGTCCAA | -0.00856
AAGGGATG | 0.0103
TCCACCGA | -0.198
CGCTGCTA | -0.289
GAGGCAAC | 0.435
ATGAGCGG | -0.126
ACGATTCG | -0.0523
GGCTTAAC | 0.109
CGTGGAGA | -0.321
CCCCTCGA | -0.349
CAATGGGC | -0.0162
CCCAGGTA | 0.0242
AGAGAGTA | 0.0443
TCTGGAAA | -0.0747
GCTTATAC | -0.0279
CATTCCCA | -0.133
ATGCCGCA | -0.0433
ACCTGGAA | 0.239
GAGATTGA | -0.0729
ATATCTGA | 0.0625

Sequence | PBM E-score
ACCATAAG | -0.0852
AGACGACA | 0.00758
GGGCGTAC | -0.0872
GAATATTA | 0.116
TTACCTAA | 0.285
GTTGAAGA | 0.00717
CCAATGCG | -0.169
ACCATTTA | 0.0969
CTGCGGTA | -0.118
TTCACAAA | 0.019
CAGGGATA | -0.109
CAGACGTA | 0.101
GACCAAGA | -0.0847
ACGCCCCC | -0.0398
CGCACGTA | 0.154
GCTCATCC | -0.173
CCCAGCTA | -0.154
AAACCGCC | -0.0324
GAACTCGC | -0.0603
TCTCAACA | 0.219
AGAGTAAT | 0.199
TCATTGCA | -0.0218

— the supplement of paper PMC3334620
